Measurements published in patent publication US20220031657A1 (NOVARTIS AG, priority 2017, published 2022).

Test system: D538G ER mutant MCF-7 xenograft
Assay: D538G ER mutant MCF-7 breast cancer model in NSG mice
Settings: LSZ102 80 mg/kg daily; fulvestrant 5 mg/mouse weekly

## C[C@]12CC[C@@H]3c4ccc(O)cc4C[C@@H](CCCCCCCCC[S+]([O-])CCCC(F)(F)C(F)(F)F)[C@H]3[C@@H]1CC[C@@H]2O (stereo partly shown) [Fulvestrant]
  anti-tumor effect in words: also active
